Molecular target: Human Galectin-3 (Gal3) protein (human) (UniProt P17931)
Experiment: competition ELISA, hGal3 coated; competitor: biotinylated aggregated phospho-tau

Sequence of UniProt P17931 (P17931 whole entry): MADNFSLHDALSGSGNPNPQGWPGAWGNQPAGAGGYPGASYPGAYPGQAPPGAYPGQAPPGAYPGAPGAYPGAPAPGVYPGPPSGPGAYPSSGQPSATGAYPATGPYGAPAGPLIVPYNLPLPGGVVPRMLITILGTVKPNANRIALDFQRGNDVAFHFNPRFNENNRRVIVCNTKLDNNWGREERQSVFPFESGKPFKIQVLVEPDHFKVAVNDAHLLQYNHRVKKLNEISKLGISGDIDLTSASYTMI

B1: 847.26F5-hIgG4(S288P) (antibody)
heavy: QIQLVQSGPEVKKPGETVKISCKASGYIFTNYGMNWVKQAPGKGLKWMGWINTYTGEPTYTDDFKGRFAFSLETSASTAYLQINNLKNEDTATYFCAKFGNYVGAMDYWGQGTSVTVSSASTKGPSVFPLAPCSRSTSESTAALGCLVKDYFPEPVTVSWNSGALTSGVHTFPAVLQSSGLYSLSSVVTVPSSSLGTKTYTCNVDHKPSNTKVDKRV[human IgG4 Fc with S228P (EU numbers) skipped]
light: EIKMNQSPSSLSASLGDTITITCHASQNINVWLSWYQQKPGNIPKLLIYKASNLHTGVPSRFSGSGSGTGFTLTISSLQPEDIATYYCQQGQSYPYTFGGGTKLELKRTVAAPSVFIFPPSDEQLKSGTASVVCLLNNFYPREAKVQWKVDNALQSGNSQESVTEQDSKDSTYSLSSTLTLSKADYEKHKVYACEVTHQGLSSPVTKSFNRGEC
blocking efficacy: > 70%

Reference: patent publication US20250026838A1
